Measurements published in PubChem BioAssay AID588342 (National Center for Advancing Translational Sciences (NCATS), 2011).
Where “and” joins values, the source holds several entries; their conditions need not be identical. Equal entries are not always repeated. The whole screen tested about 360,000 compounds, of which about 25,000 (6.9%) were called active. Inconclusive means that the source gave no clear call. Such entries were picked first, then a sample of the others. Calls come from the whole dose curve; as a rule, active = well fitted inhibition curve with a large enough effect; inconclusive = small, poorly fitted or top-dose-only effect; inactive = flat fitted curve, though single readings scatter. A potency beside an inconclusive call is a rough fit, not a confirmed value.

What follows are compounds tested against Luciferin 4-monooxygenase (Photinus pyralis) (UniProt P08659) (assay: qHTS profiling assay for firefly luciferase inhibitor/activator using purifed enzyme and Km concentrations of substrates (counterscreen for miR-21 project)). Settings: purified FLuc, luminescence inhibition; series mostly up to 57.5 µM.
Procedure, shortened: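 Biochemical qHTS of compounds, final roughly 60 µM downward over six points, against 10 nM purified firefly luciferase using Km concentrations of substrates (10 uM D-luciferin, 10 uM ATP) in Tris acetate pH 7.5 buffer; luminescence output.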
Note: nearly all actives have a fitted effect of over 55% in size.
Potency is the fitted concentration of half-maximal effect; tags give direction and shape of the fitted curve.

Sequence of UniProt P08659 (P08659 whole entry, looked up): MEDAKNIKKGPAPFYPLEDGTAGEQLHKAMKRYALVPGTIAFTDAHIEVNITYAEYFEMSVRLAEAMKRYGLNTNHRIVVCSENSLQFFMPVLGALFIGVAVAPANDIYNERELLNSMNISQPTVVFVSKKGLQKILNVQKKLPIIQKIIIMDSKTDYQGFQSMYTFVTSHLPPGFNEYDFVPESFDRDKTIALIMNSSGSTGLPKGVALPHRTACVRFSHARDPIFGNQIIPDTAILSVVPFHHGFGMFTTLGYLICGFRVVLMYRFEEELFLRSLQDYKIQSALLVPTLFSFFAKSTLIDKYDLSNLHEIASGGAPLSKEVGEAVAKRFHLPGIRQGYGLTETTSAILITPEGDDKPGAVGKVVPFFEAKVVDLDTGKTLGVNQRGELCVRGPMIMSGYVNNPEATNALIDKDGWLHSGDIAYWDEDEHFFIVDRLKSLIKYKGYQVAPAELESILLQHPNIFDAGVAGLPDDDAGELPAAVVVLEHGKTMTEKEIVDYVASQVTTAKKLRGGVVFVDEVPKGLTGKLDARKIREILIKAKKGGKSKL

Row | Compound | Potency
1 | COc1cc(C(=O)NCc2ccc3c(c2)CCN3C(=O)c2ccc(Cl)cc2)cc(OC)c1OC | inconclusive: 16.9 µM [inhibitor, partial curve]
2 | Cc1ccc(NC(=O)CSc2nc(=O)n(Cc3ccccn3)c3c2CCC3)cc1F | inactive
3 | CCCCOC(=O)c1ccc(NC(=O)CSc2nncn2C)cc1 | inconclusive: 23.9 µM [inhibitor, single point]
4 | C#CCOCCOCCOCCNc1nc(N2CCN(C(=O)CCCCCCCCCCNC(=O)[C@H](CCCCN)n3cc(C)nn3)CC2)nc(N2CCN(C(=O)CCCCCCCCCCNC(=O)[C@H](CCCN=C(N)N)n3cc(C[C@@H](C)CC)nn3)CC2)n1 | inconclusive: 30.1 µM [inhibitor, single point]
5 | O=C(NC(=S)Nc1ccccc1C(=O)O)c1ccc2ccccc2c1 | inconclusive: 23.9 µM [inhibitor, single point]
6 | COc1ccc(/C=C2\S/C(=N/S(=O)(=O)c3cccs3)NC2=O)cc1 | active: 19 µM
7 | CC(=O)Nc1nc(-c2ccc(Br)s2)cs1 | inconclusive: 2.69 µM [inhibitor, partial curve, poor fit]
8 | COc1ccc(C(=O)COc2cccc(NC(=O)c3ccco3)c2)cc1 | active: 15.1 µM
9 | C=CCn1cc(/C=C2\SC(N3CCOCC3)=NC2=O)c2ccccc21 | inconclusive: 16.9 µM [inhibitor, partial curve]
10 | O=C(Nc1cccc(C(=O)OCc2cc(=O)n3c4c(sc3n2)CCCC4)c1)c1cccc(F)c1 | inconclusive: 6.75 µM [inhibitor, full curve]
11 | COc1ccc(NC(=O)CSc2nc(C3CC3)nc3ccccc23)c(OC)c1 | inactive
12 | COc1ccc(CC(=O)N/N=C\c2cc(Br)c(O)c(Br)c2)cc1 | inconclusive: 26.9 µM [inhibitor, partial curve, poor fit]
13 | COc1ccc(-c2oc3ccccc3c2C#Cc2cncn2C)cc1 | inconclusive: 6.01 µM [inhibitor, single point]
14 | Cc1cc(C)c(OCC(O)CN2CCN(C(=O)c3ccccc3)CC2)c(C)c1 (centres undefined) | inactive
15 | Cc1cccc(OCc2n[nH]c(=S)n2Cc2ccccc2)c1 | inconclusive: 26.9 µM [inhibitor, partial curve, poor fit]
16 | COc1cc2c(cc1OC)C(Nn1cnnc1)=NC1(CCCC1)C2 | inactive
17 | COc1ccccc1CNC(=O)CCn1c(=O)c2ccccc2n(CC(=O)Nc2cc(Cl)ccc2C)c1=O | inactive
18 | C/C=C/c1ccc(OCC(=O)OCc2csc(Nc3ccc(C)cc3)n2)c(OC)c1 | active: 12 µM
19 | COc1cc(/C=N/Nc2ccc(F)cc2F)cc(OC)c1OC | inconclusive: 37.9 µM [inhibitor, single point]
20 | Cn1nc(CSc2ccccc2)c(C=O)c1Cl | inconclusive: 37.9 µM [inhibitor, partial curve, poor fit]
21 | NC(=O)C1CN(C(=O)c2nn(Cc3ccccc3)c(=O)c3ccccc23)c2ccccc2O1 (centres undefined) | inactive
22 | COc1cccc(C(=O)Nc2ccc(C3CC3(Cl)Cl)cc2)c1 (centres undefined) | active: 2.69 µM
23 | O=c1cc(COc2ccccc2Cl)nc2scc(-c3ccccc3)n12 | inconclusive: 9.53 µM [inhibitor, partial curve, poor fit]

Row | Compound | Potency
24 | O=C(Cc1ccccc1)N/N=C/c1cc(Br)cc(Br)c1O | inconclusive: 37.9 µM [inhibitor, single point]
25 | COC1=C(Nc2ccccc2)C(=O)c2ccccc2C1=O | inconclusive: 26.9 µM [inhibitor, single point]
26 | CN1CCC(=NOc2ccc([N+](=O)[O-])cc2)CC1 | inconclusive: 26.9 µM [inhibitor, single point]
27 | COc1ccc(/C=C2/S/C(=N/N=C3\CC4CCC3(C)C4(C)C)NC2=O)cc1 (centres undefined) | inconclusive: 16.9 µM [inhibitor, partial curve]
28 | Cc1cc(NS(=O)(=O)c2ccc(NC(=O)COc3ccccc3Br)cc2)no1 | inconclusive: 12 µM [inhibitor, partial curve]
29 | CCOc1ccc2nc(NC(=O)C34CC5CC(CC(NC(C)=O)(C5)C3)C4)sc2c1 | inconclusive: 26.9 µM [inhibitor, single point]
30 | Cc1ccc(CNC(=O)CO/N=C/c2ccc(C(C)(C)C)cc2)cc1 | inconclusive: 15.1 µM [inhibitor, partial curve]
31 | COc1ccc(CCNC(=O)c2ccccc2NC(=O)C2=C(C)OCCS2)cc1OC | inconclusive: 19 µM [inhibitor, partial curve]
32 | Cc1nnc(SCC(=O)N2N=C(c3ccc(Cl)cc3)CC2c2ccco2)[nH]c1=O (centres undefined) | inconclusive: 21.3 µM [inhibitor, partial curve]
33 | CCCc1nc2ccccc2c(C(=O)OCC(=O)c2ccc3c(c2)NC(=O)CO3)c1CC | inactive
34 | COCC(C)n1c(C)cc(C(=O)COC(=O)C2=NN(c3ccccc3)C(=O)CC2)c1C (centres undefined) | inconclusive: 37.9 µM [inhibitor, partial curve, poor fit]
35 | Cc1cc(C)cc(NC(=O)CSc2ccc(-c3cccs3)nn2)c1 | inconclusive: 21.3 µM [inhibitor, partial curve] and inconclusive: 19 µM [inhibitor, partial curve]
36 | Cc1cc(NS(=O)(=O)c2ccc(NC(=O)/C=C/c3ccccc3)cc2)no1 | inconclusive: 26.9 µM [inhibitor, single point]
37 | O=C(Cc1ccc(F)cc1)NCCc1csc2nc(-c3ccccc3F)nn12 | inactive
38 | CN(CC(=O)Nc1ccccc1Cl)C(=O)c1ccc(N2CCCCCC2)c([N+](=O)[O-])c1 | inconclusive: 19 µM [inhibitor, partial curve]
39 | O=C(c1ccco1)N1CCn2cccc2C1c1ccccc1 (centres undefined) | inconclusive: 21.3 µM [inhibitor, partial curve]
40 | CCOC(=O)C1(CCc2ccccc2)CCN(C(=O)CCn2cnnn2)CC1 | inconclusive: 37.9 µM [inhibitor, single point]
41 | CCCn1c(=O)c(C(=O)NCc2ccco2)c(O)c2ccccc21 | inconclusive: 19 µM [inhibitor, partial curve, poor fit]
42 | CN(C(=O)CSc1ncnc2sccc12)C1CCCCC1 | active: 13.5 µM
43 | O=C(O)CCC(=O)NNC(=O)CCCOc1ccc(Cl)cc1Cl | inconclusive: 21.3 µM [inhibitor, partial curve, poor fit]
44 | O=C1c2ccccc2C(=O)N1c1ccc(Cl)cn1 | inactive
45 | COc1ccc(CNc2ccc(C)c(C)c2)cc1 | active: 15.1 µM
46 | Cc1ccc(S(=O)(=O)Oc2ccccc2/C=N/Nc2ccc(C(=O)O)cc2)cc1 | active: 19 µM

Row | Compound | Potency
47 | COc1ccc(CCNc2ncnc3c2cnn3-c2ccc(C)c(Cl)c2)cc1 | inconclusive: 37.9 µM [inhibitor, partial curve, poor fit]
48 | CCOC(=O)c1cnc2c(C)cc(C)cc2c1Nc1ccc(S(=O)(=O)Nc2ncccn2)cc1 | inconclusive: 21.3 µM [inhibitor, single point]
49 | O=C(OCn1nnc2ccccc2c1=O)C1COc2ccccc2O1 (centres undefined) | inactive
50 | O=C(Nc1ccc(F)cc1)c1cccc2c1C(=O)N(Cc1ccccn1)C2 | inconclusive: 23.9 µM [inhibitor, partial curve, poor fit]
51 | O=C(Nc1ccccn1)c1ccco1 | inconclusive: 37.9 µM [inhibitor, partial curve, poor fit]
52 | Cn1c(SCC(=O)Nc2nc(C(C)(C)C)cs2)nnc1C1CC1 | inactive
53 | CCN(CC)CCC(=O)NN | inactive
54 | O=C(OCc1ccccc1)N1CCc2ccccc21 | active: 2.69 µM
55 | Cc1ccccc1CSc1nc2[nH]ncc2c(=O)[nH]1 | inconclusive: 37.9 µM [inhibitor, partial curve, poor fit]
56 | CCCN(Cc1nnc(-c2cccs2)o1)C(=O)CN1C(=O)NC2(CCC(C)CC2)C1=O (centres undefined) | inactive
57 | COc1cccc(NC(=O)C2CCC(CNS(=O)(=O)c3csc(C(N)=O)c3)CC2)c1 (centres undefined) | inactive
58 | O=C1NC(c2ccccc2Br)=N/C1=C\c1ccco1 | active: 0.379 µM
59 | COc1ccc(O)c(C(=O)C2c3ccccc3C(=O)N2c2ccc(C)cc2)c1 (centres undefined) | inconclusive: 37.9 µM [inhibitor, single point]
60 | CCC(=O)c1cn(CC(=O)Nc2cccc(OC)c2)c2ccccc12 | inactive
61 | CCOc1cc(/C=C/c2ccc3cccc([N+](=O)[O-])c3n2)ccc1OCC(=O)N(C)C | inconclusive: 15.1 µM [inhibitor, partial curve]
62 | Cc1c(C(=O)OCC(=O)N(C)Cc2ccccc2)oc2ccccc12 | inconclusive: 37.9 µM [inhibitor, partial curve, poor fit]
63 | N/C(=N\O)c1ccc(NC(=O)c2ccc(Br)o2)cc1 | active: 16.9 µM
64 | O=C(Nc1ccc([N+](=O)[O-])cc1)Nn1cnnc1 | inactive
65 | COc1cc(NC(=O)COc2c(C)cc(C)cc2[N+](=O)[O-])c(OC)cc1Cl | inactive
66 | FC(F)(F)c1cnc2c(-c3ccc(Cl)cc3Cl)noc2c1 | inactive
67 | COc1cccc(C(=O)/C(C#N)=N/Nc2cccc(-c3ccnc(C)n3)c2)c1 | inconclusive: 23.9 µM [inhibitor, partial curve, poor fit]
68 | COc1ccc(-c2cc(=O)c3c(O)cc(O[C@@H]4O[C@H](CO[C@@H]5O[C@@H](C)[C@H](O)[C@@H](O)[C@H]5O)[C@@H](O)[C@H](O)[C@H]4O)cc3o2)cc1O | inactive
69 | O=S(=O)(c1ccccc1)N1c2cc(Cl)ccc2Oc2nc3ccccc3nc21 | active: 13.5 µM
